The values below come from publication PMC4336329 (PLoS ONE, 2015).

Out of some 310,000 compounds screened, about 14,000 (4.5%) showed an effect of 50% or more. The effect is printed as a negative number. The list shows a part of the results.
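Note: peak tail current of the secondary pulse compared with the same well before compound.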

human ether-à-go-go-related gene (hERG) potassium channel, sequence (Q12809 whole entry, looked up): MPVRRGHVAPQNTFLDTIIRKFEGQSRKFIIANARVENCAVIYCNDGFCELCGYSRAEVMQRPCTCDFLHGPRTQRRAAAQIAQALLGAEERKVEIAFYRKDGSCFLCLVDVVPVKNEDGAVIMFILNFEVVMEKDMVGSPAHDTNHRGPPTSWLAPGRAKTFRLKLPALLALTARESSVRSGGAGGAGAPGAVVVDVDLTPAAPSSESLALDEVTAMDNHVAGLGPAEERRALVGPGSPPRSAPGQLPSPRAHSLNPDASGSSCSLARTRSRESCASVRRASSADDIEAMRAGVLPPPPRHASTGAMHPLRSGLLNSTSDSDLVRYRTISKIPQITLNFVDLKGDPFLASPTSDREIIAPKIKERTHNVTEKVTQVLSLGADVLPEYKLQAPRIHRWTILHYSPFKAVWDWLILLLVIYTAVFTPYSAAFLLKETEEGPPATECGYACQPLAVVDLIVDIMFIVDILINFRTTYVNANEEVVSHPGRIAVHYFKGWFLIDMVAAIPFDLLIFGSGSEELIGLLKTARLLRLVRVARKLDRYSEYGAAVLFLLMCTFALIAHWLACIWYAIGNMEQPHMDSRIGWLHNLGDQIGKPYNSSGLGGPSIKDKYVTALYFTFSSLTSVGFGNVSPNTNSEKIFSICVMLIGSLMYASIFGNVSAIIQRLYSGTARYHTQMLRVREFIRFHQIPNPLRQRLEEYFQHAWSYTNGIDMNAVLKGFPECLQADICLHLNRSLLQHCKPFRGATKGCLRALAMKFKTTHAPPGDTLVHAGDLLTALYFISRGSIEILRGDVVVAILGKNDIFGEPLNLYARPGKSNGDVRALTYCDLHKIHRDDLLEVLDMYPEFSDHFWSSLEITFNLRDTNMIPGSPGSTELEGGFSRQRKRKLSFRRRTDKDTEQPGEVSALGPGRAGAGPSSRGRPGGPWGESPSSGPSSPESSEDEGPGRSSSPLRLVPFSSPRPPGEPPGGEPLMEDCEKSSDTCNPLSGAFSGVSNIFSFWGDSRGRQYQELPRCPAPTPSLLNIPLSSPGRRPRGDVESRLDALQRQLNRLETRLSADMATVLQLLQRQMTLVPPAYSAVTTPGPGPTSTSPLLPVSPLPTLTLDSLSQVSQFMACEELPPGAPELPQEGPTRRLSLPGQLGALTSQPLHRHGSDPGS

The test has as its target human ether-à-go-go-related gene (hERG) potassium channel (human, UniProt Q12809). Description: primary screen, population patch clamp on CHO cells stably expressing hERG.
For `CC1(C)CC(=O)c2c(O)cc(OCc3ccc([N+](=O)[O-])cc3)cc2O1`, the “hERG current change (%, negative = inhibition) at 10uM” value is listed as 15.1%.

As for `Cc1cc(Sc2nnc(/N=C/N(C)C)s2)c2ccccc2n1`, the “hERG current change (%, negative = inhibition) at 10uM” value came to 8.63%. Then `Cc1nn(C2CCS(=O)(=O)C2)c(Cl)c1/C=C/C(=O)OCC(=O)Nc1ccccc1[N+](=O)[O-]` (stereo not shown), with 23%.

`O=C(Cn1cnc2ccccc21)N/N=C/c1cccs1`: the “hERG current change (%, negative = inhibition) at 10uM” value is recorded as 12.4%. In the case of `CCC(C)[C@@H](CN(N=O)[C@@H](Cc1ccccc1)CN(C)N=O)N(CCc1ccccc1)N=O.[Na+]` (stereo partly shown), the “hERG current change (%, negative = inhibition) at 10uM” value is -4.74%. With `N#C/C(=C\c1ccc(F)cc1)c1n[nH]c(Cn2cncn2)n1` the figure was 17.8%. On to `Nc1ccc(C(=O)OCC(=O)Nc2ccc([N+](=O)[O-])cc2C(F)(F)F)cc1`, for which the “hERG current change (%, negative = inhibition) at 10uM” value was -15.8%. On to `O=C(NC1CCCCC1)c1cc2cc(Br)ccc2o1`, for which the “hERG current change (%, negative = inhibition) at 10uM” value was determined as 22.5%. For `Cc1cccc(N2CCN(C(=O)Cc3ccc(-n4c(=O)[nH]c5ccsc5c4=O)cc3)CC2C)c1` (stereo not shown), the “hERG current change (%, negative = inhibition) at 10uM” value is 0.143%.

For the compound `CCN(CC)S(=O)(=O)c1ccc(C)c(NC(=O)COc2ccc(Cl)cc2Br)c1`, the “hERG current change (%, negative = inhibition) at 10uM” value was 1.38%. Then `COc1cc2c(cc1OC)-c1cc(N3CCc4ccccc43)nc(=O)n1CC2`, with 11.7%; and `COc1cccc(NC(=O)c2c(F)cccc2F)c1`, with -6.78%. With `CCOCCCNC(=O)c1ccc(CS(=O)(=O)Cc2ccccc2F)o1`, the “hERG current change (%, negative = inhibition) at 10uM” value was -11%. With `COC(=O)c1nn(-c2ccccc2)c(=O)cc1Oc1ccc(Cl)cc1`, the “hERG current change (%, negative = inhibition) at 10uM” value is listed as -13.6%. Then `C/C(=N\NC(=O)C1CC1c1ccccc1)c1cccc([N+](=O)[O-])c1` (stereo not shown), with 7.21%; and `CC(=O)Nc1ccc(Cc2nc3ccccc3[nH]2)cc1`, with 23.5%. On to `Cn1c(=O)c2c(nc(Oc3cccc(Br)c3)n2C)n(C)c1=O`, for which the “hERG current change (%, negative = inhibition) at 10uM” value is recorded as -5.17%. For `CCOC(=O)c1sc(=NC(=O)c2ccc(S(=O)(=O)N(C)c3ccccc3)cc2)n(C)c1C`, the “hERG current change (%, negative = inhibition) at 10uM” value was 14.7%. Then `O=C(CCn1c(=S)[nH]c2cc3c(cc2c1=O)OCO3)NCc1cccc(Cl)c1`, with 14.7%; and `COc1ccccc1N1CCN(c2ncc(C(=O)N3CCN(c4cccc(Cl)c4)CC3)c3ccccc23)CC1`, with -10.7%; and `COc1nc(C)ccc1-c1noc(-c2ccncc2)n1`, with -6.26%. With `CSCCC(NC(=O)COc1ccccc1)C(=O)Nc1ccc(C)cc1` (stereo not shown) the figure was -3.07%; with `COc1ccc(OC)c(-c2nn(-c3ccccc3)cc2C(=O)N2CCc3ccccc3C2)c1`, 2.08%; with `COc1ccccc1CNC(=O)CSc1ccc(-c2ccccn2)nn1`, -17.9%. With `COC(=O)NCC(c1ccco1)N1CCN(c2ccccc2)CC1` (stereo not shown) the figure was 7.73%. Take `CCN(C(=O)CSc1cc(-c2ccccc2)c2ccc(OC)cc2n1)C1CCS(=O)(=O)C1` (stereo not shown): the “hERG current change (%, negative = inhibition) at 10uM” value was -14.2%. Then `CCN1CCN(c2nc3ccccc3n3cnnc23)CC1`, with -14.8%; and `C/C(=N\NC(=O)CNC(=O)c1ccccc1F)c1ccco1`, with 5.9%; and `CC1=C(C)C(=O)OC(C(C)C2CCC3C4CC=C5CC(OC6OC(COC7OC(CO)C(O)C(O)C7O)C(O)C(O)C6O)CC(O)C5(C)C4CCC23C)C1` (stereo not shown), with -3.93%. In the case of `CSc1nnc(CSc2cc(C)nc(N(C)C)n2)o1`, the “hERG current change (%, negative = inhibition) at 10uM” value is on record as -17.3%. In the case of `COc1ccc(Cl)cc1NC(=S)N1CCN(c2ncccn2)CC1`, the “hERG current change (%, negative = inhibition) at 10uM” value is listed as 13.6%. With `c1ccc(OCc2nc(-c3ccccc3)no2)cc1` the figure was 6.52%; with `Cc1ccc(N(C(=O)CNC(=O)c2ccco2)C(C(=O)NC2CCCCC2)c2ccncc2)c(C)c1` (stereo not shown), 8.01%.

Turning to `CCN1C(=O)CC(n2c(C)nc3ccccc32)C1=O` (stereo not shown), the “hERG current change (%, negative = inhibition) at 10uM” value is given as 6.2%. Then `C=CCN1C=C2C(=O)C(C)(OC(=O)c3cnc4ccccc4n3)C(=O)C=C2C=C1/C=C/COC` (stereo not shown), with -6.07%; and `O=C(COc1ccc2ccccc2c1)N1CCN(c2ccccc2O)CC1`, with 2.1%; and `CCOc1ccccc1Nc1nc(-c2sc(NC(=O)c3ccco3)nc2C)cs1`, with 16.1%. As for `Cc1ccc(OCCn2nnc3ccccc32)cc1C`, the “hERG current change (%, negative = inhibition) at 10uM” value is on record as -8.01%. Then `COc1cc2c(cc1NS(=O)(=O)N1CCCCC1)oc1ccccc12`, with 1.96%; and `O=C(c1cc(COc2c(F)cccc2F)on1)N1C[C@H]2CC[C@H]1C2`, with -12.9%; and `COc1cccc(/C=N/n2cnc3cc(C)c(C)cc32)c1OC`, with 18.8%. With `CCc1ccc2[nH]c(C(=O)Nc3ccc(F)cc3Br)cc2c1` the figure was 25.3%. Regarding `O=C(CCc1ccc(S(=O)(=O)N2CCOCC2)cc1)Nc1ccc2ccccc2c1`, the “hERG current change (%, negative = inhibition) at 10uM” value is recorded as -13.8%.
